# Sequences with one replicate were seen in a single cluster, so their values are uncertain.
# Test system: ATP
# Test: switch fluorescence ratio, 500 uM ATP over buffer (Cy3 cluster intensity, sum of 5 cycles each) (fold (ratio)); higher = stronger signal-on switching upon ATP binding; sequences stand for … in TCGTCGGCAGCGTCAGATGTGTATAAGAGACAGTTTTTTTTTTTTTTTTTTTTTTTTT…TC
# Settings: aptamer strand: ATP DNA aptamer (quencher-CACCTGGGGGAGTATTGCGGAGGAAGG + anchor), 100 nM annealed; ATP concentration: 500 uM; one replicate
# Procedure, shortened: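 Values give the fluorescence ratio for each switch-domain sequence, averaged from per-cluster ratios of summed target-cycle to summed buffer-cycle Cy3 intensity. The Cy3-labelled switching-strand clusters sat on a modified Illumina MiSeq flow-cell, were annealed to 100 nM quencher-labelled ATP aptamer, and were imaged in selection buffer, then after 15 min with 500 uM ATP at 22 °C. Five cycles ran with NaOH stripping and re-annealing between them, and clusters outside 100-1000 RFU were excluded.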
# 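Note: ATP exposure 15 min at 22 °C before imaging.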
row,Sequence,switch fluorescence ratio
1,AGGTGAGATG,1.01
2,TGGGGTGGGC,1.05
3,GGAAGCTACG,0.981
4,AATATAGGA,0.996
5,GTTGGAAAAA,0.947
6,ATTCCCCTTA,1.06
7,TAAGTTCAGT,1.01
8,CTAGGTGAAC,1.07
9,AGCGGGCAAT,1.31
10,TGACAAACCC,1.12
11,ATTTCGATA,0.934
12,TAATTGCAAG,0.916
13,AACAGGACGT,1.03
14,CAGTGGGAGC,0.993
15,TGGCACATAA,1
16,GGGTGATCAT,0.984
17,TGGGCGTTTT,1.03
18,CGTCAGACTG,1.04
19,AGGTCAATTT,0.969
20,GCTGGAAATC,1.05
21,TCCGAGGGGG,1.01
22,AGCATAAATA,1.01
23,AATAGGGAGT,0.977

row,Sequence,switch fluorescence ratio
1,AGGCCCCAAT,1.08
2,AAGGAACATG,0.995
3,TATGGAGTAT,0.975
4,CTGCTATCC,1.47
5,CTGAGCGGAT,1.04
6,TCGTTATTAC,1.37
7,TTGATGGCTC,0.976
8,CGTACGGCAA,5.12
9,CGTTCCTGCT,0.993
10,TAGTCTGTCT,0.984
11,GGGGATGGT,1
12,AAATTCTGAA,1
13,TTTTGTAGAG,0.984
14,GCCCGCGCCC,1.23
15,TTCGGGACTC,1.06
16,TGCGAGTAAA,1.03
17,CTTATGAAGT,0.945
18,ATTTATGTT,0.97
19,CATTCCTGGA,1
20,TGCGACCGGG,0.931
21,GCAAAAGATA,0.988
22,ATTTGCCAGT,0.968
23,GTTTCAAAAC,0.994

row,Sequence,switch fluorescence ratio
1,GGGACAG,0.974
2,GTTCGCATGG,1.26
3,TCACAGTTGA,1.01
4,GACCTCTATC,1.04
5,ATAAGGTTAC,1
6,TCAAGATGGT,0.997
7,ATGTGGGTCC,1.02
8,CGAAAGTGGG,0.975
9,GTTTGTACGG,1.04
10,TCATAATATG,0.99
11,ACCGGAGGAG,1
12,TTCGAGACGC,0.931
13,AAAGGATCG,1.01
14,ATCCCATCAT,0.984
15,AGTGATCCCG,1.02
16,AAGGCGTAGG,0.953
17,GTCTTATCTG,0.961
18,TGAGGCTCCA,1.02
19,TTTTTCAACG,1.1
20,GAATTTGTAT,1
21,AAGTAGGCTA,0.976
22,AACAACCTAT,1.01
23,AGTCGCCCT,0.988

row,Sequence,switch fluorescence ratio
1,CATTTGTAAC,1.05
2,TAAAACTTTC,1.02
3,AAACGGGAC,1.18
4,TCGTGTGGAA,1.02
5,AAAAGTGCTC,1.07
6,GATATGGGTT,1.01
7,GTGTGCTCTG,1
8,GCATATAGGG,1.04
9,CCACTTCGCG,1.11
10,GTGTACGTTG,0.984
11,CGCAGACCCG,1.11
12,TACCTCTTAG,1.01
13,CGGCAATCGT,1.78
14,CGAAATAGTA,1.04
15,AAAAGTAGGT,1.01
16,GGACAATTGG,1.01
17,GGCTGTTA,0.966
18,ATGGCCGGCG,1.17
19,TGGACCAGCG,1.03
20,TTCTTGAGC,1.06
21,CACGCAATCG,4.52
22,CTGCTTTTTG,0.993
23,ATCGGGAGCT,1.05

row,Sequence,switch fluorescence ratio
1,GGAAATTTTA,1.01
2,ATCCGTCAGC,1.21
3,TAGACAGGGC,1.04
4,ATTATACGAT,0.981
5,ATTCTCTAGG,0.981
6,ATTCTGTAGC,1.58
7,GATACATTCG,0.983
8,GCAATGACAG,1.06
9,TTGGGAGGG,0.963
10,TTTATATGAT,0.996
11,TTAAGTGGCG,0.908
12,TATAAGCTCG,0.948
13,GTCCGGGGTG,1.26
14,CTATATCGGA,0.985
15,AGCGACACGG,0.991
16,AATCTTAGAA,1.01
17,AGATGCTTAC,1.15
18,CTGATCGTGA,1.13
19,CTTGGTCCGG,1.03
20,ACTTTTTTGG,0.962
21,AAACAGCATT,3.28
22,TTCCAGGTCA,1.04
23,AAACTCTTTG,1

row,Sequence,switch fluorescence ratio
1,ATTTCACACC,1.07
2,ACGAGTAATA,1.1
3,CGAAAGTCC,1.02
4,TTTTGTGCAC,0.977
5,GGCTGCGCCC,0.936
6,TGGTCATGAA,0.992
7,ATTGATTCGC,1.01
8,TGCAATATGG,1.79
9,AGTAGTTGTA,1
10,TAAGCCAACG,1.09
11,ACTCTGGTCT,1.02
12,TGCGTCGGAT,0.992
13,TTGAGTTAAG,0.998
14,ACTTAGATAC,1.45
15,GCATTCAGGC,0.983
16,ATATGATACA,1.05
17,CCACAAATTC,1.36
18,TTTAGTTCCA,0.965
19,GGTACACTGC,0.97
20,AATTACTTC,0.995
21,CCTCTGAGCT,1.8
22,TCGCCAATTT,2.2
23,CGGCGTAAT,1.01

row,Sequence,switch fluorescence ratio
1,GAGGGTCTGA,0.989
2,GCACTAATTG,1.07
3,TGAACGCGTG,0.991
4,TACTTGTAGA,1.03
5,GTCTGAGGAC,0.989
6,TTTATGCGGT,0.981
7,GCTAGAGTA,1.01
8,GTGCGGTA,1.04
9,TGCCATTACT,1.05
10,GCACTATAAT,1.08
11,ACATTGAACC,1.03
12,CTCATTGGTG,1.09
13,ATGAATATCC,1
14,TTTTTGCGGG,0.962
15,GCACCGTGGT,1.04
16,GGCTAGCGAC,1.02
17,GTGATAGGGT,1.03
18,TAAGTCAGAA,0.969
19,GACGGTATTA,1.1
